From ChEMBL document CHEMBL1157539, “Thousands of chemical starting points for antimalarial lead identification” (Nature, 2010) come the findings set out here.

Whole data set: some 13,000 compounds, median “IFI” near 4, cut for the highest 2% near 17. This is one part of the list.

This assay in a line: GSK_TCMDC: Inhibition Frequency Index (IFI). The number of non-kinase HTS assays where a compound showed > 50 % inhibition, expressed as a percentage of the number of such assays in which the compound was tested (-0 is zero). It is filed as functional.
`CS(=O)(=O)CCNCc1cccc(-c2ccc3c(Nc4ccc(Oc5ccccc5)cc4)ccnc3c2)c1`: the IFI was 3.68%.

Turning to `CCC[C@@H]([C@@H](CC1CCCCC1)C(=O)N[C@H](C(=O)Nc1ccccn1)[C@H](C)CC)N(O)C=O`, the IFI worked out at 2.92%.

The molecule `CC(C)c1ccc(NC(S)=NN=Cc2ccccn2)cc1` registered an IFI of 6.47%.

As to `CC(=O)c1ccc(NC(=O)Nc2ccc(N(C)c3ccnc(NC4CC4)n3)cc2)cc1`, the IFI was 8.04%.

For `CC(C)C[C@H](NC(=O)c1cc(-c2ccc(F)cc2)no1)C(=O)O.CC(C)C[C@H](NC(=O)c1conc1-c1ccc(F)cc1)C(=O)O`, the IFI was -0%.

Take `CC(C)c1ccc(S(=O)(=O)N(c2ccc3c(c2)OCO3)C2CCN(Cc3ccccc3)C2)cc1` (stereo unspecified): the IFI came to 2.05%.

With `N=C(N)NN=Cc1ccccc1OCc1ccccc1Cl`, the IFI turned out to be 6.72%.

As for `Cc1cc(NC(=O)c2sc3ccccc3c2O)no1`, the IFI amounted to 3.23%.

Molecule `c1ccc(-c2cc(NCc3cccc4ccccc34)c3[nH]ncc3n2)cc1` returned an IFI of 2.88%.

Take `O=C(Nc1ccc(-c2cccc(-c3nc4cc(F)ccc4[nH]3)c2)cc1)c1ccncc1`: the IFI is 7.48%.

In turn, `O=[N+]([O-])c1cccc(CNCC2CCN(CCc3ccccc3)CC2)c1` registered an IFI of 1.44%.

Consider `COc1ccc(CCN2CC[C@H](Nc3nc(-c4ccc(F)c(F)c4)nc4ccccc34)C2)cc1S(N)(=O)=O`, for which the IFI was found to be 3.01%.

Consider `Cc1cc(N2CCCC2)nc(Nc2ccc(NC(=O)c3cccc(F)c3)cc2)n1`, for which the IFI was determined as 10.3%.

Molecule `CCc1c(C)nc(-n2nc(C)cc2NC(=O)c2cccc3ccccc23)[nH]c1=O` came in with an IFI of 9.62%.

Consider `COc1ccc(C(=O)Nc2cc(Br)c3c(c2)CNCC3)cc1Br`, for which the IFI was found to be 4.38%.

Turning to `COc1ccc(CN(C)CCCc2ccc(NC(=O)Cc3ccc4nc(-c5ccccc5)ccc4c3)cc2)cc1OC`, the IFI came to 3.36%.

`O=C(Nc1ccc(-c2nc3ccccc3[nH]2)cc1)c1ccc(Cl)s1` displayed an IFI of -0%.

In the case of `CCc1ccc(CN2CCC(CNC(=O)c3cc(-c4ccccc4Cl)cs3)C2)cc1` (stereo unspecified), the IFI came out at 8.16%.

`Clc1ccc(Nc2nc3ccc(Cl)cc3nc2Nc2ccc(Cl)cc2)cc1`: the IFI was 10.1%.

As to `COc1cc2c(cc1S(=O)(=O)c1ccc(COc3ccc(C(F)(F)F)cc3)cc1)CNCC2`, the IFI stood at 14.3%.

For `Cc1cccc2[nH]c(-c3cc(-c4cccc(Cl)c4)cnc3N)nc12`, the IFI came out at 8.72%.

`Cc1cc(Nc2ccccc2)nc(Nc2ccccc2)n1` returned an IFI of 4.35%.

In turn, `c1cc(CN2CCN(c3ccncc3)CC2)cc(-c2cccc(-c3nc4ccccc4[nH]3)c2)c1` gave an IFI of 13.5%.

As for `Cc1cccc2nc(-c3ccc(-c4ccc(CN5CC(C)OC(C)C5)cc4)cc3)[nH]c12` (stereo unspecified), the IFI was 6.94%.

In turn, `Cc1ccccc1C1CCN(C2CCC(NC(=O)/C=C/c3cccc(Cl)c3)CC2)CC1` (stereo unspecified) returned an IFI of 16.4%.

Take `Cc1cc(N(C)CCCN(C)C)nc(Nc2ccc(Cl)cc2)n1`: the IFI came to 2.25%.

Molecule `N=c1c(C(=O)NCc2ccccc2)cc2c(=O)n3ccccc3nc2n1CCc1ccccc1` yielded an IFI of 2.65%.

As for `CCOc1ccccc1CNc1nccc(NCc2ccc(Cl)cc2Cl)n1`, the IFI was determined as 16%.

The molecule `O=C(NC1CCCCC1)C1CCCN(C(=O)c2ccc(O)c(-c3ccc(Cl)c(Cl)c3)c2)C1` (stereo unspecified) yielded an IFI of 2.92%.

Regarding `Clc1ccc(Cc2nc3ccccc3[nH]2)cc1Cl`, the IFI stood at 2.26%.

The molecule `CC(C)C1=C[C@H]2C[C@]3(C4OCCO4)[C@@H]4CC[C@@H](C)[C@H]4C[C@@]2(C(=O)OCC2COCO2)[C@]13C(=O)OC(c1ccccc1)c1ccccc1` (stereo partly specified) had an IFI of 1.55%.

Consider `CN(C(=O)Nc1ccc(C(F)(F)F)cc1)C1CCN(CCCCCNC(=O)/C=C/c2ccc(Cl)c(Cl)c2)CC1`, for which the IFI worked out at 13.2%.

For `CN1CCN(CC(=O)Nc2cccc(-c3cccc(-c4nc5cc(F)ccc5[nH]4)c3)c2)CC1`, the IFI came to 6.09%.

`O=C(NCc1cccc(CN2CCOCC2)c1)c1cc(Br)cc(N2CCN(c3ccncc3)CC2)c1`: the IFI was determined as 6.25%.

In turn, `Cc1cc(N(C)CCCN2CCCCC2)nc(Nc2ccc(Cl)cc2)n1` came in with an IFI of 3.52%.

`Nc1nccc2ccc(Oc3ccncc3)cc12`: the IFI is -0%.

The molecule `O=C(Nc1ccc(OC2CCN(Cc3ccc(F)cc3)C2)cc1)c1ccco1` (stereo unspecified) had an IFI of -0%.

`CC(C)NCc1cc(Nc2ccnc3cc(Cl)ccc23)ccc1O` came in with an IFI of 3.57%.

The molecule `CC(C)c1ccc(NC(=O)c2ccc(C(=O)NC3CCN(Cc4ccccc4)CC3)cc2)cc1` had an IFI of 4.27%.

`CN1CC[C@@H](Oc2cc(CNC(=O)c3ccc(-c4ccc(Cl)cc4)s3)ccc2C(F)(F)F)C1` gave an IFI of 8.26%.

For `CN(C)c1ccc(C2(c3ccccc3)N=C(N)N(CCCc3ccccc3)C2=O)cc1` (stereo unspecified), the IFI amounted to 6.67%.

On to `CC(C)CNC(=O)c1ccnc(-c2ccc(CNC3Cc4ccccc4C3)cc2)c1`, for which the IFI was found to be 3.03%.

Consider `CN(C)S(=O)(=O)n1ncc2c3c(N)nc(N)nc3ccc21`, for which the IFI worked out at 1.54%.

`CCOc1ccccc1C(=O)N1CCc2cc3nccc(N4CCN5CCC[C@H]5C4)c3cc21` yielded an IFI of 3.01%.

With `Cc1noc(-c2cccs2)c1C(=O)NC(C)c1cccc2ccccc12` (stereo unspecified), the IFI was 2.44%.

Molecule `CCC(NC(=O)c1ccccc1NC(=O)c1ccc(C)cc1)C(=O)OC` (stereo unspecified) gave an IFI of 0%.

Turning to `Cc1cc(CN2CCC(Nc3ncc(-c4ccsc4)c4nc(C(F)(F)F)ccc34)CC2)no1`, the IFI stood at 7.46%.

Regarding `CC(C)CCCC(C)(C)NC[C@@H](O)[C@H](Cc1ccccc1)NC(=O)c1cccc(CCC2CC2)c1`, the IFI came out at 22.4%.

Turning to `O=C(Nc1ccnc(-c2cccnc2)n1)c1cc(C(F)(F)F)cc(C(F)(F)F)c1`, the IFI came out at 0%.

Turning to `CCN(CC)CCN(Cc1ccc(-c2ccc(C(F)(F)F)cc2)cc1)C(=O)Cn1c(CCc2c(F)cccc2F)nc(=O)c2ccccc21`, the IFI was found to be 11.7%.

In the case of `CCC[C@@H]([C@@H](Cc1ccc(C)s1)C(=O)N[C@@H](CNC(C)=O)C(=O)Nc1nccs1)N(O)C=O`, the IFI amounted to 1.59%.

Turning to `COc1ccc(C2C(C(=O)Nc3ccccc3)=C(C)Nc3c(C(=O)Nc4ccccc4)cnn32)cc1` (stereo unspecified), the IFI is -0%.

On to `Cc1cccc2nc(-c3cccc(-c4ccc(NC(=O)CN5CCN(C)CC5)cc4)c3)[nH]c12`, for which the IFI came to 3.6%.

Molecule `COc1cc(C2=NN(S(=O)(=O)c3c(C)cc(C)cc3C)CCCC2)ccc1Cl` registered an IFI of 2.22%.

The molecule `COc1ccc(C(=O)C2CC2CN(C)CC(O)c2cc(C)c(OC)cc2C)cc1` (stereo unspecified) returned an IFI of 0.88%.

Regarding `Ic1cc(CNC2CCCCC2)ccc1OCc1cccc(COc2ccc(CNC3CCCCC3)cc2I)c1`, the IFI amounted to 10.1%.

For `CC(=O)c1ccc2nc[nH]c(=O)c2c1`, the IFI turned out to be 26.1%.

In the case of `CCOc1ccc(OCCCON2C(=N)N=C(N)NC2(C)C)cc1`, the IFI came to 2.17%.

Turning to `O=C(/C=C/c1ccc(Cl)c(Cl)c1)NCCCCCN1CCC(c2c[nH]c3ccc(O)cc23)CC1`, the IFI turned out to be 8.57%.

Regarding `COc1cccc(-c2cc(C(F)(F)F)n3ncc(C(=O)Nc4cc(Cl)ccc4O)c3n2)c1`, the IFI turned out to be 0%.

Consider `Cc1ccc(F)cc1-c1cc(N2CCCN(C(=O)c3ccc(Br)o3)CC2)ncn1`, for which the IFI was determined as 0%.

On to `CCn1c(-c2nonc2N)nc2c(-c3cccc(NC(=O)Nc4cccc(C(F)(F)F)c4)c3)ncc(OCCCN)c21`, for which the IFI was determined as 14.6%.

`COc1ccc(CNCc2ccccc2)cc1-c1ccc(S(=O)(=O)NCCN2CCCC2)s1`: the IFI came out at 11.1%.

`OC(CN1CCN(Cc2ccccc2)CC1)Cn1c(-c2ccccc2)c(-c2ccccc2)c2ccccc21` (stereo unspecified): the IFI came to 2.13%.

As for `CCCc1cc(N2CCC(N3CCCC3)CC2)nc(Nc2ccc(Cl)cc2)n1`, the IFI came to 2.6%.

`NC1CCN(CCc2ccc(NS(=O)(=O)c3ccc(-c4ccccc4)cc3)cc2)CC1` had an IFI of 12.5%.

`COc1cccc(C(=O)NCCc2cccc(Cl)c2)c1Oc1ccccc1` gave an IFI of -0%.

`Cc1cccc2nc(-c3ccc(-c4ccc(NC(=O)Nc5ccsc5)cc4)s3)[nH]c12` showed an IFI of 6.06%.

Molecule `COc1ccc(NC(=O)/C=C/c2ccc(-c3ccccc3)cc2)cc1N1CCN(C)CC1` came in with an IFI of 2.21%.

Molecule `Cc1cc(C2CCN(CCCCNC(=O)c3ccc(-c4ccc(C(F)(F)F)cc4)cc3)CC2)c(C)cc1OCC#N` had an IFI of 4.59%.

Regarding `NCCCN(Cc1ccc(Cl)c(Cl)c1)C(=O)Nc1ccc(Cl)c(Cl)c1`, the IFI was 17.7%.

In turn, `COc1ccc(CNC2Cc3ccccc3C2)cc1-c1ccc(S(=O)(=O)NCCN2CCCC2)c(F)c1` yielded an IFI of 10.2%.

Molecule `Clc1nc2ccccn2c1C=Cc1ccc2ccccc2n1` displayed an IFI of 1.41%.

Take `CCc1ccc(CN2CCC(CNC(=O)c3cc(-c4cccc(Cl)c4)cs3)C2)cc1` (stereo unspecified): the IFI is 8.16%.

Molecule `N=C(NCCCCCCCCNC(=N)Nc1ccc(Cl)cc1)Nc1ccc(Cl)cc1` displayed an IFI of 3.65%.

`O=C(/C=C/c1ccc(Cl)c(Cl)c1)NCCCCCN1CCC(NC(=O)c2ccc(F)cc2F)CC1`: the IFI was determined as 7.14%.

Consider `COc1cccc(C23NC(=Nc4nc5ccccc5[nH]4)NC2(c2cccc(OC)c2)NC(=Nc2nc4ccccc4[nH]2)N3)c1` (stereo unspecified), for which the IFI is 2.86%.

On to `CCOc1cc(C)ccc1C1CCN(CCCCNC(=O)c2cccc(-c3ccc(C(F)(F)F)cc3)c2)CC1`, for which the IFI was determined as 9.65%.

In turn, `CCN(CCN(C)C)Cc1ccc(-c2ccc(NS(=O)(=O)c3cccc4cccnc34)cc2)cc1` showed an IFI of 6.61%.

In the case of `CN(C)CCOc1cc(NC(=O)Nc2cccc([N+](=O)[O-])c2)ccc1I`, the IFI amounted to 2.99%.

As for `Cc1cc(-c2cccc(CNC3CCCC3)c2)ccc1S(=O)(=O)NCCN1CCCC1`, the IFI is 6.93%.

Regarding `CN1CCC(C(=O)Nc2ccc(-c3ccc(-c4nc5ccccc5[nH]4)s3)cc2)CC1`, the IFI is 3.48%.

With `CCN1CCC(NCc2ccc(-c3ccc(Cl)cc3)cc2)CC1`, the IFI was 5.63%.

With `O=C(Nc1ccc2c(c1)CNCC2)c1ccc(-c2ccc(Cl)cc2)cc1`, the IFI came to 7.86%.

`CCNc1cc(C(=O)N[C@@H](Cc2ccccc2)[C@H](O)CNCCc2ccccc2)cc(N2CCCC2=O)c1` had an IFI of 0.72%.

`COc1ccc(N2CCN(CCCNC(=O)c3ccc(NC(=O)c4cc(Cl)cc(Cl)c4)cc3)CC2)c(OC)c1` gave an IFI of 7.08%.

The molecule `Cc1nc(-c2ccc(-c3ccc(C(=O)Nc4ccc(Cl)c(N5CCN(C)CC5)c4)cc3)c(C)c2)no1` had an IFI of 9.09%.

With `Cc1cccc(CN2CCCC3(CCN(Cc4ccccc4O)C3)C2)c1` (stereo unspecified), the IFI stood at 4.88%.

As for `COc1cc(C)nc2ccc(NC(=O)c3cc([N+](=O)[O-])cc([N+](=O)[O-])c3)cc12`, the IFI was determined as 1.41%.

Molecule `CC(C)CC(=O)N1CCNC[C@@H]1C(=O)NC1CC1` showed an IFI of 0.72%.

The molecule `CNc1ccc(CNCc2cccc(-c3ccc(-c4nc5cccc(C)c5[nH]4)cc3)c2)cc1` registered an IFI of 12%.
